Results from the supplement of paper PMC10126150.
Sequences with one replicate were seen in a single cluster, so their values are uncertain.

Tested on: ATP
Assay: switch fluorescence ratio, 500 uM ATP over buffer (Cy3 cluster intensity, sum of 5 cycles each) (fold (ratio)); higher = stronger signal-on switching upon ATP binding; sequences stand for … in TCGTCGGCAGCGTCAGATGTGTATAAGAGACAGTTTTTTTTTTTTTTTTTTTTTTTTT…TC
Conditions: aptamer strand: ATP DNA aptamer (quencher-CACCTGGGGGAGTATTGCGGAGGAAGG + anchor), 100 nM annealed; ATP concentration: 500 uM; one replicate
In short: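 Clusters with intensities outside 100-1000 RFU were excluded. The remaining Cy3-labelled switching-strand clusters on a modified Illumina MiSeq flow-cell had been annealed to 100 nM quencher-labelled ATP aptamer and imaged in selection buffer, then after 15 min with 500 uM ATP at 22 °C, for five cycles separated by NaOH stripping and re-annealing. The fluorescence ratio, averaged per switch-domain sequence, is each cluster's summed target-cycle Cy3 intensity over its summed buffer-cycle Cy3 intensity.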
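Note: ATP exposure 15 min at 22 °C before imaging.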

Sequence: AGCATGGGGT
- switch fluorescence ratio: 1

Sequence: CGTAGGACTC
- switch fluorescence ratio: 1.07

Sequence: GGCGCATCCT
- switch fluorescence ratio: 1.02

Sequence: TCGATGGGTA
- switch fluorescence ratio: 0.998

Sequence: GCAAGTCTCT
- switch fluorescence ratio: 1.05

Sequence: TTGGCCTGTG
- switch fluorescence ratio: 1.09

Sequence: ACCCGGCCCT
- switch fluorescence ratio: 1.01

Sequence: TAGAGCGTCG
- switch fluorescence ratio: 1

Sequence: GCATCCG
- switch fluorescence ratio: 0.989

Sequence: GATCGGTCAT
- switch fluorescence ratio: 0.99

Sequence: TGTGTGCCAG
- switch fluorescence ratio: 0.984

Sequence: TGTGGTTCTG
- switch fluorescence ratio: 0.981

Sequence: ACGAAAGCCA
- switch fluorescence ratio: 1.07

Sequence: CTGGATAGGG
- switch fluorescence ratio: 0.95

Sequence: GCACAAGCCC
- switch fluorescence ratio: 1.09

Sequence: TCTGGGCTT
- switch fluorescence ratio: 0.982

Sequence: GGTTCACTTA
- switch fluorescence ratio: 1.01

Sequence: AGCGGACTAA
- switch fluorescence ratio: 1.01

Sequence: GATCGAA
- switch fluorescence ratio: 0.995

Sequence: AGCAGATTCT
- switch fluorescence ratio: 0.979

Sequence: TGTCCCTGCT
- switch fluorescence ratio: 0.995

Sequence: GCCATGAGGG
- switch fluorescence ratio: 1.03

Sequence: TGCAAGCACA
- switch fluorescence ratio: 1.22

Sequence: CGTAGAACAA
- switch fluorescence ratio: 1.05

Sequence: CGCCGCAACG
- switch fluorescence ratio: 1.08

Sequence: ATTGGCCAGG
- switch fluorescence ratio: 1.09

Sequence: CCAAGGTTTC
- switch fluorescence ratio: 1.06

Sequence: AAGTAGTGCA
- switch fluorescence ratio: 0.991

Sequence: AGGGTTCGTT
- switch fluorescence ratio: 1.01

Sequence: TAGGCTCGT
- switch fluorescence ratio: 0.981

Sequence: TTTCCTTAAA
- switch fluorescence ratio: 1.37

Sequence: TGTTGCTAGC
- switch fluorescence ratio: 1.06

Sequence: TTAGGGGGC
- switch fluorescence ratio: 0.998

Sequence: GAGAAATGT
- switch fluorescence ratio: 1.02

Sequence: TCAGAACCGG
- switch fluorescence ratio: 0.985

Sequence: CATTACTTCG
- switch fluorescence ratio: 1.08

Sequence: TGGTGATATT
- switch fluorescence ratio: 1.03

Sequence: TCGTGATGAC
- switch fluorescence ratio: 1.23

Sequence: CATATTCGAT
- switch fluorescence ratio: 0.963

Sequence: CCCTCTGGAA
- switch fluorescence ratio: 1.55

Sequence: TGATGATTTG
- switch fluorescence ratio: 1

Sequence: AGTGTGAGGA
- switch fluorescence ratio: 1.01

Sequence: CGAGGGTTAG
- switch fluorescence ratio: 0.964

Sequence: CCACGGGCTC
- switch fluorescence ratio: 1.11

Sequence: GGTACTTCTT
- switch fluorescence ratio: 1.01

Sequence: GAAGTCATAG
- switch fluorescence ratio: 1.08

Sequence: GCTGTACGT
- switch fluorescence ratio: 1.07

Sequence: TCTGGTTACC
- switch fluorescence ratio: 0.988

Sequence: CCACGTTTGA
- switch fluorescence ratio: 1.02

Sequence: TCCTGGCAGC
- switch fluorescence ratio: 1.61

Sequence: TAGACGGGGT
- switch fluorescence ratio: 0.979

Sequence: AGAGCAGACG
- switch fluorescence ratio: 1.01

Sequence: GAGGTTCAAT
- switch fluorescence ratio: 0.969

Sequence: TGCTTGCTGC
- switch fluorescence ratio: 1.06

Sequence: AGTACGGCAT
- switch fluorescence ratio: 1.05

Sequence: AACTAGGGTC
- switch fluorescence ratio: 0.988

Sequence: CTAGTTTATA
- switch fluorescence ratio: 0.982

Sequence: TAACAGAAAA
- switch fluorescence ratio: 1.18

Sequence: TTTGGTATTG
- switch fluorescence ratio: 0.995

Sequence: TCCGCAGTTT
- switch fluorescence ratio: 3.29

Sequence: GGGCAGGGAC
- switch fluorescence ratio: 1.01

Sequence: AATGAATAA
- switch fluorescence ratio: 1

Sequence: CAAGGGAGCG
- switch fluorescence ratio: 0.969

Sequence: AAATACGAGC
- switch fluorescence ratio: 1.05

Sequence: CTTGGTGACT
- switch fluorescence ratio: 1.02

Sequence: TAAATTCGTA
- switch fluorescence ratio: 1.02

Sequence: TTCTGAAATT
- switch fluorescence ratio: 1.03

Sequence: CAAGGACAT
- switch fluorescence ratio: 1.02

Sequence: GTTTAGTCTG
- switch fluorescence ratio: 1.02

Sequence: GCGACTGTGG
- switch fluorescence ratio: 1.05

Sequence: CCGGGCAAGG
- switch fluorescence ratio: 3.4

Sequence: GAAAATCCAT
- switch fluorescence ratio: 1.04

Sequence: TCGCGAAATA
- switch fluorescence ratio: 1.02

Sequence: TTACTTTCTA
- switch fluorescence ratio: 1.02

Sequence: AGCCTGCACT
- switch fluorescence ratio: 1.05

Sequence: AATGAGCCGA
- switch fluorescence ratio: 1.04

Sequence: ATTCGCTGAT
- switch fluorescence ratio: 1.08

Sequence: TATCGCGAAA
- switch fluorescence ratio: 0.993

Sequence: TAAGTGTGGG
- switch fluorescence ratio: 0.981

Sequence: ACCTGAACGT
- switch fluorescence ratio: 0.969

Sequence: CACGTCCTAC
- switch fluorescence ratio: 1.29

Sequence: CCATCCAGCA
- switch fluorescence ratio: 2.86

Sequence: TGTTGGCCAT
- switch fluorescence ratio: 0.971

Sequence: AAGTCGACTT
- switch fluorescence ratio: 0.992

Sequence: GATCAGACTA
- switch fluorescence ratio: 0.963

Sequence: GGTTCTTGCG
- switch fluorescence ratio: 1.05

Sequence: GAAGTGTCAG
- switch fluorescence ratio: 0.994

Sequence: ATCCAGCGCG
- switch fluorescence ratio: 1.04

Sequence: GATGCGCCAG
- switch fluorescence ratio: 0.972

Sequence: TAAAAGAGCG
- switch fluorescence ratio: 1.03

Sequence: TTTACGACTC
- switch fluorescence ratio: 1.2

Sequence: CGTAATAGCC
- switch fluorescence ratio: 1.2

Sequence: CGACGCGTCT
- switch fluorescence ratio: 1.13

Sequence: CTTTTCTTTT
- switch fluorescence ratio: 1.02

Sequence: TGATATCGTT
- switch fluorescence ratio: 1.02

Sequence: CATAGCTGCA
- switch fluorescence ratio: 1.04

Sequence: TCCCATGAGG
- switch fluorescence ratio: 1.01

Sequence: TGTGACGCAT
- switch fluorescence ratio: 1.15

Sequence: AGACGTACTT
- switch fluorescence ratio: 1.13

Sequence: CGGTCTTATT
- switch fluorescence ratio: 0.97

Sequence: CTTGGGAGGT
- switch fluorescence ratio: 1.01

Sequence: GAGTGATGG
- switch fluorescence ratio: 1.05

Sequence: ATCCACCTTG
- switch fluorescence ratio: 1.03

Sequence: CGGTACTTGA
- switch fluorescence ratio: 1.01

Sequence: TTGTTATATC
- switch fluorescence ratio: 1.06

Sequence: TAAAGGAAG
- switch fluorescence ratio: 0.982

Sequence: TTAGAATCGG
- switch fluorescence ratio: 1

Sequence: CATTCTCGG
- switch fluorescence ratio: 0.955

Sequence: CGCCACTATA
- switch fluorescence ratio: 1.15

Sequence: CGGGTCGTCA
- switch fluorescence ratio: 1.05

Sequence: GGAGCATGCG
- switch fluorescence ratio: 1.1

Sequence: GTTCCGATAA
- switch fluorescence ratio: 1.15

Sequence: GCATTTGGCA
- switch fluorescence ratio: 1.09

Sequence: TTCGTGGATT
- switch fluorescence ratio: 1.03

Sequence: TAAGTTGCGG
- switch fluorescence ratio: 0.971

Sequence: TTCTATAGGA
- switch fluorescence ratio: 1.02

Sequence: TTCGATAGAC
- switch fluorescence ratio: 1.08

Sequence: CCGTATGGTT
- switch fluorescence ratio: 1.02

Sequence: GTAACTTGGG
- switch fluorescence ratio: 1

Sequence: CATATTCCAT
- switch fluorescence ratio: 1.05

Sequence: GGTGCACGG
- switch fluorescence ratio: 0.987

Sequence: ACCTGAGTA
- switch fluorescence ratio: 1.05

Sequence: CGTACCAAGA
- switch fluorescence ratio: 1.02

Sequence: GCCTAAGCTA
- switch fluorescence ratio: 1

Sequence: TATCGGTTCC
- switch fluorescence ratio: 1.03

Sequence: TAAGATCTAA
- switch fluorescence ratio: 0.973

Sequence: GACTCGCCCC
- switch fluorescence ratio: 1.3

Sequence: GCGCGCCCTA
- switch fluorescence ratio: 1.02

Sequence: AAATCGTAAG
- switch fluorescence ratio: 1

Sequence: GAGTATGGAT
- switch fluorescence ratio: 1.02

Sequence: ACCCGGGTAA
- switch fluorescence ratio: 1.68

Sequence: ATGGTCTGGA
- switch fluorescence ratio: 1.03

Sequence: GTTAGCATAA
- switch fluorescence ratio: 1.01

Sequence: CGGCCGCCGC
- switch fluorescence ratio: 1.26

Sequence: GGCTTCACGT
- switch fluorescence ratio: 0.97

Sequence: CCAGGACGCC
- switch fluorescence ratio: 1.04

Sequence: TGTAAAAACT
- switch fluorescence ratio: 0.964

Sequence: CGAGCTGC
- switch fluorescence ratio: 0.993

Sequence: TAGATGCATC
- switch fluorescence ratio: 0.991

Sequence: TTTTAGGTC
- switch fluorescence ratio: 0.957

Sequence: GAAAGCATGG
- switch fluorescence ratio: 1.03

Sequence: GACGAGTCGG
- switch fluorescence ratio: 1

Sequence: GCCTAAGTTA
- switch fluorescence ratio: 1.03

Sequence: GGGAATAGTA
- switch fluorescence ratio: 1.03

Sequence: TACTCCAACT
- switch fluorescence ratio: 1.16

Sequence: GGCCAAAGCT
- switch fluorescence ratio: 0.964

Sequence: CCACGATAAA
- switch fluorescence ratio: 1.05

Sequence: TGCCCGGGCG
- switch fluorescence ratio: 0.996

Sequence: ATGAGTACCT
- switch fluorescence ratio: 1.09

Sequence: AGCGACCTCT
- switch fluorescence ratio: 1.04

Sequence: CGTTACCAGG
- switch fluorescence ratio: 2.06

Sequence: CTTACTTTTT
- switch fluorescence ratio: 1

Sequence: CGCGCTGAAT
- switch fluorescence ratio: 1

Sequence: TAACTGAATG
- switch fluorescence ratio: 1.02

Sequence: CGCATCACCT
- switch fluorescence ratio: 1.6

Sequence: GGGGCAGTT
- switch fluorescence ratio: 0.977

Sequence: TTTCAGTGGC
- switch fluorescence ratio: 1

Sequence: ATGGGACGGA
- switch fluorescence ratio: 1.04
